Over roughly 33,000 sequences, “E-score (-0.5 to 0.5)” has its median near -0.011; the highest 2% begin near 0.28. The list shows a part of the results.
What follows are sequences tested against T1, Gcr1 (UniProt P07261) (assay: PBM E-score (8-mer binding enrichment) (E-score (-0.5 to 0.5)); higher = stronger / more preferred TF binding; most listed sequences are background and not binding sites). Conditions: protein concentration: 100 nM; construct: GST-full length.
T1 sequence: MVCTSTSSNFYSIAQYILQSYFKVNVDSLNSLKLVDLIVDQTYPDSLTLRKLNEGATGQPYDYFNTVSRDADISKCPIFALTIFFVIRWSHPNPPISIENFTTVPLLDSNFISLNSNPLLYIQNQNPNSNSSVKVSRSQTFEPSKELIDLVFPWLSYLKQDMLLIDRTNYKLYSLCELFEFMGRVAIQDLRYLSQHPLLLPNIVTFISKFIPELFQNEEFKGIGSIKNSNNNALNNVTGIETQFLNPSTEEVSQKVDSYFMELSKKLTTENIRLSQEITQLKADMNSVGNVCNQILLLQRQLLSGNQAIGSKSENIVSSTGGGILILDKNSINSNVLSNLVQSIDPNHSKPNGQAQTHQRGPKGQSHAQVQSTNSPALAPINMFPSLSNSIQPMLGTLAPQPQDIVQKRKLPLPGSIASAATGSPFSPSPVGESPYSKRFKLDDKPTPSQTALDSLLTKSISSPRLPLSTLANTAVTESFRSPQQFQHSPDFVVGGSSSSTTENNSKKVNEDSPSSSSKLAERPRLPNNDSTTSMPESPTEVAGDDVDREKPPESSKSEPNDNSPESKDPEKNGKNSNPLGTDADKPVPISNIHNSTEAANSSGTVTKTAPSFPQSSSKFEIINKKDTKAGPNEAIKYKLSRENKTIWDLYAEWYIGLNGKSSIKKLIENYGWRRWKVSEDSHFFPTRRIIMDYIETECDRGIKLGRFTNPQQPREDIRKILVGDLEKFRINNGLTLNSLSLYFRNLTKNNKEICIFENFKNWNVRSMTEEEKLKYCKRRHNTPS
Summary of the method: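 Using PURExpress in vitro transcription/translation, GST-tagged yeast transcription factors were made in full-length or DNA-binding-domain form. These were applied at about 100-200 nM to double-stranded universal all-10-mer Agilent arrays, and bound protein was detected with fluorescent anti-GST. Scans were normalised with masliner before the Universal PBM Analysis Suite assigned E-scores to ungapped eight-base words pooled with their reverse complements.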

Row | Sequence | PBM E-score
1 | CATCGTCC | -0.0955
2 | CAGGAGCA | 0.0632
3 | CGACCTGA | -0.0722
4 | GATCCCAA | 0.278
5 | GCATGGGA | 0.0449
6 | AAATTCTC | 0.0423
7 | AAATACCT | 0.0115
8 | CCTATTGC | -0.0151
9 | AATCAGCG | 0.0596
10 | AACGCCGT | -0.216
11 | ACACTGGA | 0.264
12 | GCTGTATA | -0.244
13 | CATACTGA | 0.00856
14 | ACCCTCGG | -0.333
15 | GCCAGAGA | 0.089
16 | CATGAGGG | -0.325
17 | GTAGAGGA | 0.207
18 | CATTTGTC | -0.165
19 | ACTAACTG | 0.0208
20 | GACATACA | 0.00827
21 | AACGTCTA | 0.00101
22 | CCATAACG | 0.036
23 | GGAAAATA | 0.0546
24 | GAGCCTGA | -0.0612
25 | AAGGAGGA | 0.0608

Row | Sequence | PBM E-score
26 | ATAACTTC | 0.151
27 | GCCACTGA | 0.237
28 | CCCTTGAG | -0.0784
29 | GAAGGTTA | -0.132
30 | CGGAACCC | 0.348
31 | GAGCTTGA | -0.27
32 | ATTTCACG | 0.0699
33 | AGACTAAG | -0.151
34 | ATTGAATC | -0.229
35 | AGAGAAGG | -0.0646
36 | AAGGTTTC | -0.149
37 | GCCTGGAC | -0.0291
38 | AGTTGAGG | 0.0732
39 | ACTTATCC | 0.05
40 | ACCTGCTA | -0.211
41 | CGACTTCC | 0.27
42 | GCGCTTAA | 0.0941
43 | TCGTGGCA | 0.0674
44 | CGGCAGCA | -0.0108
45 | ATGGCGGG | -0.175
46 | CGCTAGAA | 0.0935
47 | AGGTCGCG | -0.0268
48 | CGAGAGGC | -0.0864
49 | ACCTACCA | -0.116
50 | GCGTCTAA | 0.357

Row | Sequence | PBM E-score
51 | AAATACTC | -0.0536
52 | CGCAGCTC | 0.09
53 | ACTATGAA | 0.0421
54 | ATGGGCGA | -3e-05
55 | AGACAAGG | -0.191
56 | GGAGTCAC | -0.0369
57 | GCCTTTCA | -0.134
58 | GTCCGCAA | -0.0214
59 | ATGGCAGG | 0.23
60 | AATCGGTC | -0.0441
61 | CGAGGGAG | -0.207
62 | CACAGTAG | 0.119
63 | CCATCTTA | 0.133
64 | GTACAGAC | -0.155
65 | ACTAGTTG | 0.209
66 | ATGCTGCG | 0.0273
67 | CTCAAACC | -0.123
68 | AATGGCGG | -0.00339
69 | CCGATACA | 0.0692
70 | CCCTCTGC | -0.333
71 | CACAATGA | 0.0838
72 | CAAAATTG | 0.0415
73 | CCCTCTAG | 0.0202
74 | ATGTAGAG | -0.0132
75 | ATCCATCG | -0.173

Row | Sequence | PBM E-score
76 | GATAACGA | -0.223
77 | GACTCGCA | -0.101
78 | AGTCTGCA | -0.179
79 | ATCATATG | -0.201
80 | AAGTCTGG | 0.0604
81 | CAGCAGCA | 0.00017
82 | GCTCTTCA | -0.0466
83 | CGGATGAA | -0.124
84 | CTTTAAAC | 0.00913
85 | CATACTCA | -0.0376
86 | TAGGGGCA | 0.0843
87 | GACTGCGC | -0.0774
88 | AGTCGGGA | -0.166
89 | AACCCGGC | 0.0862
90 | CCATAGCA | 0.111
91 | ATAAAACA | 0.147
92 | CGCCACAC | 0.0307
93 | ACCTCGTA | -0.147
94 | ACCCGTTA | 0.113
95 | AAATAAGA | 0.244
96 | ATATAAGA | 0.149
97 | CTGTTACA | -0.0232
98 | CCTCGCTA | -0.0436
99 | GCAGGACA | 0.0472
100 | AAGACCTC | -0.196

Row | Sequence | PBM E-score
101 | TCAGCCGA | -0.237
102 | ACCCATAG | -0.0241
103 | AAGCGCTG | -0.0178
104 | CTCAAGGA | -0.0618
105 | AGCTAACG | -0.0538
106 | GCTTAAGA | -0.0325
107 | AAGATTCG | 0.0694
108 | AAAGCAAG | -0.171
109 | AGTGATAA | 0.0157
110 | CTGTCGAA | -0.198
111 | CAAGGAAC | 0.0885
112 | AGGCCAAA | 0.141
113 | CCGCTCGC | 0.0456
114 | CAATGCTA | 0.0932
115 | CGTTTGCA | -0.108
116 | ACTTAGAT | -0.0341
117 | GGACATAC | -0.239
118 | CCTTTTAC | 0.208
119 | AACAAATG | -0.0834
120 | CGGAGCTC | -0.0976
121 | CTTCCAAA | 0.338
122 | CCCATGAA | 0.053
123 | TCAGGCAA | -0.162
124 | ATGCAGAC | 0.0912
125 | AGATAACA | -0.0519

Row | Sequence | PBM E-score
126 | GTGCTCTA | -0.0794
127 | CATAGAAC | -0.0439
128 | AACGTTTG | -0.0537
129 | CAGCTAGA | 0.227
130 | GAAGATCC | -0.0567
131 | ACTGCCGC | -8e-05
132 | AGTAAAAC | -0.21
133 | CGTGCATC | 0.00547
134 | ATCGTAAG | -0.0963
135 | CCCGCGAA | 0.171
136 | AGGACAGG | 0.0703
137 | AAAGGTTG | 0.0957
138 | CCTGACGC | -0.0471
139 | CAAAAATG | 0.131
140 | AGAACTTC | -0.00062
141 | AGTATTAT | 0.0512
142 | AACTATGG | -0.048
143 | GCTAGGCC | -0.144
144 | AACTAGGA | 0.0121
145 | CCCACCCA | 0.117
146 | TAATGTCA | -0.0397
147 | GAAGATAC | 0.0322
148 | CTATTTGA | 0.129
149 | GGAGTCAA | 0.0417
150 | AGATTGTC | -0.145

Row | Sequence | PBM E-score
151 | GTTAACGA | -0.0966
152 | ACTGGACG | 0.303
153 | CAGCTGGA | 0.0258
154 | GGCGAATA | 0.139
155 | GCACTAAA | 0.0118
156 | ACCAGAGA | -0.102
157 | CTTCTTGA | 0.257
158 | CTTTACAA | -0.0314
159 | AGATCCCA | 0.265
160 | AGACGCTC | 0.185
161 | CTATCACC | -0.0751
162 | CTTGTCTA | -0.0729
163 | AACGAACG | -0.0657
164 | AAGGCTCC | 0.0884
165 | CCGACCCC | -0.121
166 | TATGTCGA | 0.0853
167 | CTCGTTAC | -0.102
168 | AAATACGT | 0.128
169 | CTCTGCGA | -0.0534
170 | AGACCTAG | 0.0215
171 | AGTCGGGG | 0.0245
172 | CAATCCTA | 0.03
173 | CGTCCGAG | -0.124
174 | AACTAGTG | 0.156
175 | CACTGCTA | -0.145

Row | Sequence | PBM E-score
176 | ACGCGGGG | 0.0597
177 | ACAGTAAC | 0.0416
178 | CCCCTAGC | 0.0605
179 | GGCACGCA | -0.00715
180 | AGGACATG | -0.0461
181 | TCGAGCAA | -0.0234
182 | TCGGAGAA | 0.0287
183 | ACTGGGGC | 0.0922
184 | CGACGAGC | -0.246
185 | CCTTAAGC | -0.0255
186 | CGTTAGTA | 0.0931
187 | GATAACCA | 0.0866
188 | AACAATCG | -0.182
189 | CGGTCTAC | -0.204
190 | GGCTGACC | -0.139
191 | ATAGGCGA | 0.0948
192 | TAAATAAA | 0.08
193 | CAGCGTTA | -0.155
194 | GCAGGCGA | -0.0907
195 | GACAGGTC | -0.204
196 | CGGACTTA | -0.122
197 | ATAGTGCG | -0.138
198 | AACACGGA | -0.104
199 | CATCTACC | 0.0356
200 | AGGTATGC | -0.0126

Row | Sequence | PBM E-score
201 | AAGGGCGC | 0.224
202 | CCGGCCAC | -0.136
203 | ACTAAGTA | 0.0323
204 | AACTCTGT | -0.178
205 | CGCCTACC | -0.0167
206 | GACTACCC | -0.146
207 | AATAGGCG | 0.168
208 | AAAATCCA | -0.012
209 | AACGGAGG | -0.167
210 | AGACGTGC | 0.195
211 | GCGTAAGA | -0.0655
212 | AGCCTGTA | 0.0606
213 | CGACCGGC | -0.113
214 | CGGCAAAG | -0.0192
215 | GGGTACAA | 0.0739
216 | ACGTTTCA | -0.119
217 | AGCATTGC | -0.114
218 | GCGAACTA | 0.109
219 | ACCATCAC | -0.2
